Test results reported in article PMC12820563.
Some of the results follow. The list includes weakly bound sequences.

target: T1, MBP-FoxP3dN (UniProt Q99JB6); test: PD-seq (MBP pull-down with sequencing); settings: 20 mM Tris-HCl pH 7.5, 100 mM NaCl, 1.5 mM MgCl2, 0.4 uM protein, 0.1 uM dsDNA library, 30 min, room temperature, amylose pull-down; high values mean tight binding; double strand, one strand shown
T1 sequence: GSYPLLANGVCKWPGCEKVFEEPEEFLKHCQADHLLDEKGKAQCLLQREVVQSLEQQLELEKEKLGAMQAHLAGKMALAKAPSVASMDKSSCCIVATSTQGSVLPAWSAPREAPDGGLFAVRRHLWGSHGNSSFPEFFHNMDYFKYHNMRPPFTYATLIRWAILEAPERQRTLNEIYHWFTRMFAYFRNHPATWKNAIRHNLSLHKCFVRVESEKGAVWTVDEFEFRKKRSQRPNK

| Sequence | binding signal (RPM ratio (pull-down/input)) |
| --- | --- |
| GATGATTGTTCTCCCAGCTGATGAATTCATTCTTTCGAGTAAACAAATTTTCCTAATCTTTCTGTTCAAGCGCCATCTAC | 0.262 |
| GATGATTGTTCTCCCAGCTGATGAATTTGATACGTCGAGTAAACAAATTTTCCTAATCTTTCTGTTCAAGCGCCATCTAC | 1.1 |
| GATGATTGTTCTCCCAGCTGATGAATTCTCACGGTCGAGTAAACAAATTTTCCTAATCTTTCTGTTCAAGCGCCATCTAC | 0.204 |
| GATGATTGTTCTCCCAGCTGATGAATTCACGTCATCGAGTAAACAAATTTTCCTAATCTTTCTGTTCAAGCGCCATCTAC | 0.59 |
| GATGATTGTTCTCCCAGCTGATGAATTCTGAGACTCGAGTAAACAAATTTTCCTAATCTTTCTGTTCAAGCGCCATCTAC | 0.704 |
| GATGATTGTTCTCCCAGCTGATGAATTGAGCTTTTCGAGTAAACAAATTTTCCTAATCTTTCTGTTCAAGCGCCATCTAC | 2.47 |
| GATGATTGTTCTCCCAGCTGATGAATTCCTCCAGTCGAGTAAACAAATTTTCCTAATCTTTCTGTTCAAGCGCCATCTAC | 0.166 |
| GATGATTGTTCTCCCAGCTGATGAATTTTTCGCTTCGAGTAAACAAATTTTCCTAATCTTTCTGTTCAAGCGCCATCTAC | 0.272 |
| GATGATTGTTCTCCCAGCTGATGAATTGAGAATCTCGAGTAAACAAATTTTCCTAATCTTTCTGTTCAAGCGCCATCTAC | 1.49 |
| GATGATTGTTCTCCCAGCTGATGAATTTTGAAACTCGAGTAAACAAATTTTCCTAATCTTTCTGTTCAAGCGCCATCTAC | 0.974 |
| GATGATTGTTCTCCCAGCTGATGAATTGGAACAGTCGAGTAAACAAATTTTCCTAATCTTTCTGTTCAAGCGCCATCTAC | 0.229 |
| GATGATTGTTCTCCCAGCTGATGAATTCGCCAAGTCGAGTAAACAAATTTTCCTAATCTTTCTGTTCAAGCGCCATCTAC | 0.211 |
| GATGATTGTTCTCCCAGCTGATGAATTTCGAAGATCGAGTAAACAAATTTTCCTAATCTTTCTGTTCAAGCGCCATCTAC | 0.227 |
| GATGATTGTTCTCCCAGCTGATGAATTTGTGGGCTCGAGTAAACAAATTTTCCTAATCTTTCTGTTCAAGCGCCATCTAC | 3.18 |
| GATGATTGTTCTCCCAGCTGATGAATTTTATGCATCGAGTAAACAAATTTTCCTAATCTTTCTGTTCAAGCGCCATCTAC | 1.54 |
| GATGATTGTTCTCCCAGCTGATGAATTAGCTCCATCGAGTAAACAAATTTTCCTAATCTTTCTGTTCAAGCGCCATCTAC | 0.302 |
| GATGATTGTTCTCCCAGCTGATGAATTTTCATTGTCGAGTAAACAAATTTTCCTAATCTTTCTGTTCAAGCGCCATCTAC | 0.641 |
| GATGATTGTTCTCCCAGCTGATGAATTCTTGCACTCGAGTAAACAAATTTTCCTAATCTTTCTGTTCAAGCGCCATCTAC | 0.622 |
| GATGATTGTTCTCCCAGCTGATGAATTTGCGCAGTCGAGTAAACAAATTTTCCTAATCTTTCTGTTCAAGCGCCATCTAC | 0.71 |
| GATGATTGTTCTCCCAGCTGATGAATTGATTATCTCGAGTAAACAAATTTTCCTAATCTTTCTGTTCAAGCGCCATCTAC | 1.54 |

| Sequence | binding signal (RPM ratio (pull-down/input)) |
| --- | --- |
| GATGATTGTTCTCCCAGCTGATGAATTTCTCTAGTCGAGTAAACAAATTTTCCTAATCTTTCTGTTCAAGCGCCATCTAC | 0.192 |
| GATGATTGTTCTCCCAGCTGATGAATTTGGCGTATCGAGTAAACAAATTTTCCTAATCTTTCTGTTCAAGCGCCATCTAC | 1.36 |
| GATGATTGTTCTCCCAGCTGATGAATTGAACAGCTCGAGTAAACAAATTTTCCTAATCTTTCTGTTCAAGCGCCATCTAC | 0.228 |
| GATGATTGTTCTCCCAGCTGATGAATTGTTAAACTCGAGTAAACAAATTTTCCTAATCTTTCTGTTCAAGCGCCATCTAC | 0.352 |
| GATGATTGTTCTCCCAGCTGATGAATTCCCCTGTTCGAGTAAACAAATTTTCCTAATCTTTCTGTTCAAGCGCCATCTAC | 0.236 |
| GATGATTGTTCTCCCAGCTGATGAATTGTTCGTCTCGAGTAAACAAATTTTCCTAATCTTTCTGTTCAAGCGCCATCTAC | 0.473 |
| GATGATTGTTCTCCCAGCTGATGAATTTGGGTAGTCGAGTAAACAAATTTTCCTAATCTTTCTGTTCAAGCGCCATCTAC | 0.745 |
| GATGATTGTTCTCCCAGCTGATGAATTTAGTATATCGAGTAAACAAATTTTCCTAATCTTTCTGTTCAAGCGCCATCTAC | 2.93 |
| GATGATTGTTCTCCCAGCTGATGAATTGCTTTTATCGAGTAAACAAATTTTCCTAATCTTTCTGTTCAAGCGCCATCTAC | 1.11 |
| GATGATTGTTCTCCCAGCTGATGAATTGGCCCCATCGAGTAAACAAATTTTCCTAATCTTTCTGTTCAAGCGCCATCTAC | 0.303 |
| GATGATTGTTCTCCCAGCTGATGAATTAACACCATCGAGTAAACAAATTTTCCTAATCTTTCTGTTCAAGCGCCATCTAC | 0.564 |
| GATGATTGTTCTCCCAGCTGATGAATTTTTTACGTCGAGTAAACAAATTTTCCTAATCTTTCTGTTCAAGCGCCATCTAC | 0.246 |
| GATGATTGTTCTCCCAGCTGATGAATTCCAGGTTTCGAGTAAACAAATTTTCCTAATCTTTCTGTTCAAGCGCCATCTAC | 0.345 |
| GATGATTGTTCTCCCAGCTGATGAATTGTGAGAATCGAGTAAACAAATTTTCCTAATCTTTCTGTTCAAGCGCCATCTAC | 0.379 |
| GATGATTGTTCTCCCAGCTGATGAATTGTCAGTATCGAGTAAACAAATTTTCCTAATCTTTCTGTTCAAGCGCCATCTAC | 0.551 |
| GATGATTGTTCTCCCAGCTGATGAATTTCTGATCTCGAGTAAACAAATTTTCCTAATCTTTCTGTTCAAGCGCCATCTAC | 0.233 |
| GATGATTGTTCTCCCAGCTGATGAATTGTACATTTCGAGTAAACAAATTTTCCTAATCTTTCTGTTCAAGCGCCATCTAC | 0.617 |
| GATGATTGTTCTCCCAGCTGATGAATTGCGAAGCTCGAGTAAACAAATTTTCCTAATCTTTCTGTTCAAGCGCCATCTAC | 0.501 |
| GATGATTGTTCTCCCAGCTGATGAATTCAGCCATTCGAGTAAACAAATTTTCCTAATCTTTCTGTTCAAGCGCCATCTAC | 3.68 |
| GATGATTGTTCTCCCAGCTGATGAATTCAGTAGTTCGAGTAAACAAATTTTCCTAATCTTTCTGTTCAAGCGCCATCTAC | 1.16 |
